The whole screen tested about 39,000 compounds, of which about 220 (0.56%) showed activity. The list shows a part of the results.
Each compound was assayed on Escherichia coli K-12 BW25113 (assay: relative growth (OD600 normalised to plate interquartile mean) (fraction); higher = less growth inhibition, active = 0.2 or less). Conditions: 50 µM; LB; incubation time: overnight (16-24 h).
CC(C)NC(=O)Nc1ccc2c(c1)C(=O)N([C@H](C)CO)C[C@H](C)[C@H](CN(C)C(=O)Nc1cccc3ccccc13)OCCCC[C@H](C)O2 was tested, and the relative growth was inactive: 0.909.
In the case of C[C@@H]1CCCCO[C@H](CN(C)C(=O)Nc2ccc3c(c2)OCO3)[C@@H](C)CN([C@@H](C)CO)C(=O)c2cc(NS(=O)(=O)c3ccc(F)cc3)ccc2O1, the relative growth is reported as inactive: 0.996.
O=C(/C=C/c1cccc(-c2cn(-c3cccc(C(=O)N4CCC5(CC4)C(=O)NCN5c4ccccc4)c3)nn2)c1)NO was tested, and the relative growth was inactive: 0.972.
C[C@@H]1CN([C@@H](C)CO)C(=O)Cc2cc(NC(=O)Nc3ccc(C(F)(F)F)cc3)ccc2O[C@@H]1CN(C)Cc1ccc(C(F)(F)F)cc1 was tested, and the relative growth was inactive: 1.04.
With Cc1noc(C)c1NC(=O)N(C)C[C@@H]1OCCCC[C@H](C)Oc2ccc(NC(=O)Nc3ccc(F)cc3)cc2C(=O)N([C@@H](C)CO)C[C@@H]1C the relative growth was inactive: 0.987.
In the case of COC(=O)c1cc(-c2ccccc2)c(=O)n2c1N(C)[C@@]1(COCc3ccc(OC)cc3)Oc3ccccc3[C@@H]2[C@H]1CO[Si](C)(C)C(C)(C)C, the relative growth is reported as inactive: 1.04.
CC(=O)Nc1ccc(S(=O)(=O)Nc2ccc([N+](=O)[O-])cc2)cc1 was tested, and the relative growth was inactive: 1.01.
With COc1ccc(NC(=O)[C@H]2[C@@H](c3ccc(C)cc3)CC(=O)N2C(=O)OCc2ccccc2)c2ncccc12 the relative growth was inactive: 0.944.
With C[C@H](CO)N1C[C@H](C)[C@H](CN(C)Cc2ccc(Cl)c(Cl)c2)Oc2ccc(NC(=O)CCC(F)(F)F)cc2C1=O the relative growth was inactive: 0.992.
C[C@H](CO)N1C[C@H](C)[C@H](CN(C)CC2CC2)Oc2ccc(NC(=O)CCN3CCOCC3)cc2CC1=O was tested, and the relative growth was inactive: 1.
For NS(=O)(=O)c1cccc2c1c([N+](=O)[O-])cc1[nH]c(=O)c(=O)[nH]c12, the relative growth was inactive: 0.971.
With CN1C[C@@H](N)CC1=O the relative growth was inactive: 1.01.
In the case of COc1ccc(COC[C@]23Oc4ccccc4[C@H]([C@H]2CO[Si](C)(C)C(C)(C)C)N(C(=O)CC(C)=O)C(=O)N3C)cc1, the relative growth is reported as inactive: 1.
CN(C)CCCNC(=O)C[C@@H]1CC[C@H]2[C@@H](COC[C@@H](O)CN2S(=O)(=O)c2ccccc2)O1 was tested, and the relative growth was inactive: 0.994.
With C[C@@H]1CN([C@@H](C)CO)C(=O)c2cc(NS(=O)(=O)c3ccccc3)ccc2O[C@@H](C)CCCCO[C@@H]1CN(C)S(=O)(=O)c1ccc(Cl)cc1 the relative growth was inactive: 1.01.
COc1ccc(NC(=O)N(C)C[C@@H]2Oc3ccc(NC(=O)CCCCCC(=O)Nc4ccccc4N)cc3CC(=O)N([C@H](C)CO)C[C@@H]2C)cc1 was tested, and the relative growth was inactive: 0.973.
With C[C@H](CO)N1C[C@H](C)[C@H](CN(C)Cc2ccc(C(=O)Nc3ccccc3N)cc2)Oc2ccc(NS(C)(=O)=O)cc2C1=O the relative growth was inactive: 1.01.
With COc1ccc(S(=O)(=O)N(C)C[C@@H]2Oc3ccc(NS(=O)(=O)c4ccc(F)cc4)cc3CC(=O)N([C@H](C)CO)C[C@@H]2C)cc1 the relative growth was inactive: 1.01.
In the case of NNC(=O)c1cc(-c2ccccc2)n[nH]1, the relative growth is reported as inactive: 0.937.
In the case of C[C@H](CO)N1C[C@H](C)[C@@H](CN(C)C(=O)CCCN(C)C)OCCCC[C@H](C)Oc2ccc(NC(=O)Nc3cccc4ccccc34)cc2C1=O, the relative growth is reported as inactive: 0.98.
For C[C@@H]1CN([C@@H](C)CO)C(=O)CCCn2nncc2CO[C@H]1CN(C)C(=O)Nc1ccc(C(C)(C)C)cc1, the relative growth was inactive: 1.
For C[C@H](CO)N1C[C@H](C)[C@@H](CN(C)Cc2ccccc2)OCCCC[C@H](C)Oc2ccc(NS(=O)(=O)c3ccc(Cl)cc3)cc2C1=O, the relative growth was inactive: 1.03.
CCCNC(=O)C[C@@H]1CC[C@H]2NC[C@H](O)COC[C@@H]2O1 was tested, and the relative growth was inactive: 1.01.
In the case of C[C@@H]1CN([C@@H](C)CO)C(=O)c2cccc(NS(C)(=O)=O)c2O[C@H]1CN(C)C(=O)NC1CCCCC1, the relative growth is reported as inactive: 1.01.
C[C@@H]1CN([C@@H](C)CO)C(=O)Cc2cc(NC(=O)C3CC3)ccc2O[C@@H]1CN(C)S(=O)(=O)c1cn(C)cn1 was tested, and the relative growth was inactive: 1.03.
With COc1ccc(S(=O)(=O)Nc2ccc3c(c2)C(=O)N([C@H](C)CO)C[C@@H](C)[C@@H](CN(C)S(=O)(=O)c2ccc(F)cc2)O3)cc1 the relative growth was inactive: 1.03.
For O=C1O[C@@H](c2ccccc2)[C@@H](c2ccccc2)N2[C@@H](c3ccc(O)cc3)[C@]3(C(=O)Nc4ccc(C#CC5=CCCCC5)cc43)[C@@H](C(=O)O)[C@H]12, the relative growth was inactive: 0.968.
In the case of C[C@@H]1CCCCO[C@H](CN(C)C(=O)Nc2ccc(C(F)(F)F)cc2)[C@H](C)CN([C@H](C)CO)C(=O)c2cc(NC(=O)C3CCCCC3)ccc2O1, the relative growth is reported as inactive: 0.993.
C[C@H]1CCCCO[C@H](CN(C)CC2CCCCC2)[C@@H](C)CN([C@@H](C)CO)C(=O)c2cc(NC(=O)c3ccncc3)ccc2O1 was tested, and the relative growth was inactive: 0.996.
For CON=C1CN(c2nc3c(cc2F)c(=O)c(C(=O)O)cn3C2CC2)CC1CN.CS(=O)(=O)O (configuration not stated), the relative growth was active: 0.0419.
For C[C@H]1CCCCO[C@@H](CN(C)C(=O)Nc2ccccc2)[C@@H](C)CN([C@@H](C)CO)C(=O)c2cc(NC(=O)Nc3ccc4c(c3)OCO4)ccc2O1, the relative growth was inactive: 1.05.
In the case of COc1ccc(CN(C)C[C@@H]2OCCCC[C@@H](C)Oc3ccc(NC(=O)NC(C)C)cc3C(=O)N([C@H](C)CO)C[C@@H]2C)cc1, the relative growth is reported as inactive: 1.04.
For C[C@H](CO)N1C[C@H](C)[C@H](CN(C)C(=O)Nc2ccc(F)cc2)Oc2ncc(C#CCN(C)C)cc2C1=O, the relative growth was inactive: 1.01.
In the case of C[C@@H]1CN([C@H](C)CO)S(=O)(=O)c2ccc(C#CCN(C)C)cc2O[C@H]1CN(C)C, the relative growth is reported as inactive: 1.01.
For O=C(NCc1ccc2c(c1)OCO2)[C@@H]1[C@@H](CO)[C@@H]2Cn3c(cccc3=O)[C@H]1N2Cc1cncnc1, the relative growth was inactive: 1.04.
In the case of COc1ccc(NC(=O)Nc2ccc3c(c2)C(=O)N([C@@H](C)CO)C[C@H](C)[C@@H](CN(C)CC2CC2)OCCCC[C@H](C)O3)cc1, the relative growth is reported as inactive: 0.983.
In the case of C[C@H]1CN([C@@H](C)CO)C(=O)c2cccc(NC(=O)CCCCCC(=O)Nc3ccccc3N)c2O[C@@H]1CN(C)C(=O)Nc1ccc(F)cc1, the relative growth is reported as inactive: 0.991.

Reference: the supplement of paper PMC9446081
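Also: static incubation at 37 °C against the wild-type strain, values averaged over two biological replicates.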
